These results are taken from PubChem BioAssay AID360 (National Center for Advancing Translational Sciences (NCATS), 2006).

SMILES strings stand for the structures. Screen size: about 48,000 compounds; about 550 (1.1%) were called active. Roughly 4% stayed inconclusive and do not appear here. Rule as the data show it: active = potency below about 15 µM; inconclusive = mostly about 16 µM to 33 µM; inactive = weaker than that. Some of the results follow.
Potency is read from the fitted curve at half-maximal effect.

For the experiment, the target named is Lysosomal acid glucosylceramidase (Homo sapiens) (UniProt P04062). In words: Glucocerebrosidase.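 Also: the screen sought inhibitors.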 As to conditions: purified enzyme, resorufin glucoside fluorescence (screen aimed at inhibitors), 20 min; series mostly up to 77 µM. The method in brief: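 Compounds titrated against 0.2 nM normal enzyme, 30 uM resorufin beta-D-glucopyranoside substrate, citrate/phosphate buffer with taurocholate and tween-20, pH 5.9. Reaction ran 20 min at room temperature; fluorescence (Ex 548/Em 600) gave AC50.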
UniProt P04062, sequence (P04062 whole entry, looked up): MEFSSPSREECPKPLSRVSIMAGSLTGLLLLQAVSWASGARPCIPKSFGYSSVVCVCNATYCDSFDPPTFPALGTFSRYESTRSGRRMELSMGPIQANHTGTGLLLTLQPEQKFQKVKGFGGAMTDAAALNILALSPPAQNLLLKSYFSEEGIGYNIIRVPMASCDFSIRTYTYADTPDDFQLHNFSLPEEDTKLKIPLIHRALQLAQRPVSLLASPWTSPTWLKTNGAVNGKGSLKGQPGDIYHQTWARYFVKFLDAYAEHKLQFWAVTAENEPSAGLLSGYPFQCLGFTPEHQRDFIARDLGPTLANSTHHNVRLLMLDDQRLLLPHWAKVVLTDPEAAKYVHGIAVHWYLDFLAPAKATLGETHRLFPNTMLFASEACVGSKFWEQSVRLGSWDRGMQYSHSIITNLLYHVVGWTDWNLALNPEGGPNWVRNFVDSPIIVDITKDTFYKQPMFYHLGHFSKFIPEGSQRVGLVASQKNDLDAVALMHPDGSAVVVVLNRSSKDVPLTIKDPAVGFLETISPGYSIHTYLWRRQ
On to `Cc1ccc(N(CC(=O)N2CCN(C3CCCCC3)CC2)S(=O)(=O)c2cccnc2)cc1`, for which the Potency was inactive: > 76.9 µM.
For `Nc1nc(SCC(=O)N2CCCC2)[nH]c(=O)c1-c1ccccc1`, the Potency is inactive: > 76.9 µM.
With `COC(=O)C(C)Oc1ccc(=O)[nH]n1` (stereo unspecified), the Potency is inactive: > 76.9 µM.
Regarding `CCOC(=O)CSc1nnnn1-c1cccc2ccccc12`, the Potency is inactive: > 76.9 µM.
On to `Cc1ncc(CO)c2cc(C(N)=O)c(=Nc3ccccc3)oc12`, for which the Potency was inactive: > 76.9 µM.
Consider `COc1ccc(CNC(=O)CN(CC2CCCO2)C(=O)CNS(=O)(=O)c2ccc(C)cc2)cc1` (stereo unspecified), for which the Potency was inactive: > 76.9 µM.
As for `CCCOc1ccc2oc(=O)c3c(c2c1)CCCN3C(=O)CN1CCCC(C(=O)OCC)C1` (stereo unspecified), the Potency is inactive: > 76.9 µM.
On to `O=C(CCCn1c(=O)[nH]c2ccsc2c1=O)N1CCCCC1`, for which the Potency was inactive: > 76.9 µM.
For the molecule `CCc1ccc(OCC(=O)N(C)CCC#N)c(Br)c1`, the Potency is inactive: > 76.9 µM.
As for `CCOC(=O)c1cc2ccccc2nc1C`, the Potency was inactive: > 76.9 µM.
The result for `Cc1csc(SCC(=O)Nc2nc(-c3ccccc3)cs2)n1` reads inactive: > 76.9 µM; that for `CCCn1c(O)c(CN2CCCCC2)c(C)c(C#N)c1=O`, inactive: > 76.9 µM.
Consider `COc1cccc(N2CCCn3c2nc2c3c(=O)n(CCN3CCOCC3)c(=O)n2C)c1`, for which the Potency is inactive: > 76.9 µM.
`COC(=O)CNC(=O)Cn1cnc2sc(C)c(S(=O)(=O)N3CCC(C)CC3)c2c1=O`: the Potency was inactive: > 76.9 µM.
The result for `O=C(OCCOc1ccccc1Cl)c1ccc(-n2cnnn2)cc1` reads inactive: > 76.9 µM.
In the case of `O=C1CCCN1Cc1ncnn1-c1ccccc1`, the Potency is inactive: > 76.9 µM.
As for `CC(=O)NCCn1c(SCC(=O)c2ccccc2)nc2ccccc2c1=O`, the Potency is inactive: > 76.9 µM.
On to `Cc1ccc2cc(C(c3nnnn3CC3CCCO3)N3CCc4ccccc4C3)c(=O)[nH]c2c1` (stereo unspecified), for which the Potency was inactive: > 76.9 µM.
As for `CCC(C(=O)NCc1ccco1)n1nc(-c2ccc(OC)cc2)ccc1=O` (stereo unspecified), the Potency is inactive: > 76.9 µM.
For `O=C(NC1CCCCC1)C1CCN(S(=O)(=O)N2CCCCCC2)CC1` the value was inactive: > 76.9 µM.
Consider `O=c1[nH]c2ccccc2n1CCCSc1cnc2ccccc2n1`, for which the Potency is inactive: > 76.9 µM.
On to `N#Cc1c(NC(=O)CSc2nc(-c3ccco3)cc(C(F)(F)F)n2)sc2c1CCCC2`, for which the Potency was inactive: > 76.9 µM.
Take `COC(=O)c1cc(-c2ccccc2)n[nH]1`: the Potency was inactive: > 76.9 µM.
In the case of `COc1ccc(C)cc1S(=O)(=O)N(C)CC(=O)Nc1ccc2c(c1)OCCO2`, the Potency is inactive: > 76.9 µM.
Consider `COC(=O)CSc1ncccc1-c1nc2ccccc2[nH]1`, for which the Potency is inactive: > 76.9 µM.
Regarding `C=CCn1c(SCC(=O)Nc2sccc2C(N)=O)nc2sc(C)c(C)c2c1=O`, the Potency was inactive: > 76.9 µM.
As for `CCOC(=O)N1CCN(C(=O)CSc2nnc(CNC(=O)c3ccccc3F)o2)CC1`, the Potency is inactive: > 76.9 µM.
Take `CC(C(=O)O)n1nc2ccccc2n1` (stereo unspecified): the Potency was inactive: > 76.9 µM.
In the case of `CCOC(=O)c1cnc2ccc(C(=O)OC)cc2c1NCc1ccco1`, the Potency was inactive: > 76.9 µM.
Regarding `CCCOc1nc2c(c(=O)n(C)c(=O)n2C)n1Cc1cccc2ccccc12`, the Potency was inactive: > 76.9 µM.
The result for `Cc1ccc(NS(=O)(=O)c2cc(C(=O)O)ccc2Cl)c(C)c1` reads inactive: > 76.9 µM; that for `COc1ccc2[nH]c(=O)c(CN(C)C(=O)COc3ccccc3)cc2c1`, inactive: > 76.9 µM; that for `CCn1c(=O)c(C(=O)NCCNCCO)c(O)c2ccccc21`, inactive: > 76.9 µM.
Regarding `O=C(CCn1c(=O)oc2ccccc21)Nc1nccs1`, the Potency was inactive: > 76.9 µM.
For the molecule `O=c1nc(-c2ccccc2)n(-c2ccccc2)c2ncccc12`, the Potency was inactive: > 76.9 µM.
In the case of `CC(C)Cc1nc2oc3c(N4CCN(C)CC4)ncnc3c2c2c1CCCC2`, the Potency is inactive: > 76.9 µM.
The result for `COC(=O)c1[nH]c2cc(OC)ccc2c1NC(=O)CCN1CCN(c2cccc(C)c2C)CC1` reads inactive: > 76.9 µM; that for `CCN1C(=O)NC(c2cc(Br)ccc2OC)C(C(=O)OC)=C1C` (stereo unspecified), inactive: > 76.9 µM.
Turning to `O=C(CC1CCCC1)OCn1nnc2ccccc2c1=O`, the Potency is inactive: > 76.9 µM.
For `Nc1c(C(=O)Nc2ccc(F)cc2)sc2nc(-c3ccco3)ccc12` the value was inactive: > 76.9 µM; for `C=CCSC1=C(C#N)C(c2ccccc2OCC)CC(=O)N1` (stereo unspecified), inactive: > 76.9 µM; for `COc1ccc(CCN2CC3=C(C2=O)C(c2ccccc2)NC(=O)N3C)cc1OC` (stereo unspecified), inactive: > 76.9 µM.
The result for `O=C(O)c1ccc(CNc2ccccc2C(=O)O)cc1` reads inactive: > 76.9 µM; that for `O=C1CCCc2c1cc(C(=O)Nc1ccc(Cl)cn1)c(=O)n2-c1ccccc1`, inactive: > 76.9 µM.
In the case of `O=C(CCc1ccc(S(=O)(=O)N2CCOCC2)cc1)OCc1nc2ccccc2s1`, the Potency was inactive: > 76.9 µM.
Take `Cc1ccccc1NC(=O)CCN1CCCCCC1`: the Potency was inactive: > 76.9 µM.
As to `COc1ccc(CN(C(=O)c2ccco2)C2CC(C)N(C)CC2C)cc1` (stereo unspecified), the Potency was inactive: > 76.9 µM.
For `CN(C)c1ccc(-c2nn3c(-c4cccnc4)nnc3s2)cc1` the value was inactive: > 76.9 µM.
As for `COC(=O)C1=CN(C2CC2)C=C(C(=O)OC)C1c1ccccc1OC`, the Potency is inactive: > 76.9 µM.
Regarding `O=C(CSc1ncnc2ccccc12)Nc1ccc(N2CCOCC2)cc1`, the Potency is inactive: > 76.9 µM.
`CNC(=O)CCn1nc(-c2ccc(Cl)cc2)c2ccccc2c1=O`: the Potency is inactive: > 76.9 µM.
Regarding `COc1ccc(N2C(=O)CCC(C(=O)NCCN3CCOCC3)C2c2ccc(OC)c(OC)c2)cc1` (stereo unspecified), the Potency is inactive: > 76.9 µM.
As for `CCOC(=O)Cc1csc(NC(=O)CSc2nnc(-c3ccc(OC)cc3)n2C)n1`, the Potency was inactive: > 76.9 µM.
Consider `COc1ccc(NC(=O)CCN2CCCCC2)cc1`, for which the Potency is inactive: > 76.9 µM.
As to `CCCC(c1nnnn1Cc1cccs1)N1CCN(c2ccc(OC)cc2)CC1` (stereo unspecified), the Potency was inactive: > 76.9 µM.
With `CCOC(=O)N1CCC(NS(=O)(=O)c2ccc3c(c2)OCC(=O)N3)CC1`, the Potency was inactive: > 76.9 µM.
In the case of `O=C(c1ccc(F)cc1)C1CCN(C(=O)N2CCOCC2)CC1`, the Potency is inactive: > 76.9 µM.
For the molecule `CCN(CC(=O)NC1CCCCC1)S(=O)(=O)c1ccc(Cl)cc1`, the Potency is inactive: > 76.9 µM.
With `Cc1ccc(CN2C(=O)CCC2C(=O)NCc2ccc(F)cc2)cc1` (stereo unspecified), the Potency was inactive: > 76.9 µM.
The result for `Cc1cc(-c2nnc3n2N=C(c2ccc(-c4ccccc4)cc2)CS3)n[nH]1` reads “inactive”.
The result for `COc1ccc(NC(=O)C(CCS(C)(=O)=O)NC(C)=O)cc1` (stereo unspecified) reads inactive: > 76.9 µM; that for `COC(=O)c1cc(NCc2ccccc2F)ccc1N1CCOCC1`, inactive: > 76.9 µM.
For `Cn1nc(SCC(=O)O)sc1=S` the value was inactive: > 76.9 µM; for `O=C(CSc1ncnc2c1oc1ccccc12)Nc1cccc(Cl)c1`, inactive: > 76.9 µM; for `COc1ccc(Nc2nc(N)nc(C(F)(F)F)n2)c(OC)c1`, inactive: > 76.9 µM.
In the case of `CC(C)(C)OC(=O)NCC(=O)N1CCC(C(=O)O)CC1`, the Potency was inactive: > 76.9 µM.
Take `CCOc1ccc(CNc2ccc(N3CCCC3)cc2)cc1`: the Potency is inactive: > 76.9 µM.
Regarding `O=C(NCc1ccc2c(c1)OCO2)C1CC(=O)N(C2CCCCCC2)C1` (stereo unspecified), the Potency was inactive: > 76.9 µM.
Turning to `Cc1cc(Oc2ccccc2)nc(-c2ccccc2O)n1`, the Potency was inactive: > 76.9 µM.
With `CCOC(=O)C1CCN(C(=O)CCNC(=O)Cn2ccc3ccccc3c2=O)CC1`, the Potency was inactive: > 76.9 µM.
For the molecule `C=CCn1c(SCC(=O)N2CCCC2)nc2cc(C(=O)NCC3CCCO3)ccc2c1=O` (stereo unspecified), the Potency is inactive: > 76.9 µM.
The result for `CCc1nc(N2CCCCC2C)c2oc3ccccc3c2n1` (stereo unspecified) reads inactive: > 76.9 µM.
The result for `O=C(CCS(=O)(=O)c1cccc2nonc12)N1CCCc2ccccc21` reads inactive: > 76.9 µM.
With `O=C(CCN1C(=O)C2CC=C(Cl)CC2C1=O)N1CCCCC1` (stereo unspecified), the Potency was inactive: > 76.9 µM.
Regarding `Cc1cc(C)nc(SCCS(=O)Cc2ccc(Cl)cc2)n1` (stereo unspecified), the Potency was inactive: > 76.9 µM.
In the case of `Cc1ccc(CN(C)C(=O)c2ccccc2Oc2ccccc2)o1`, the Potency is inactive: > 76.9 µM.
For the molecule `CCC1(CC)C(=O)NC(=O)NC1=NCCc1ccc(O)cc1`, the Potency was inactive: > 76.9 µM.
`CCOC(=O)c1cc(OC(=O)c2cccnc2)n(-c2ccccc2)n1`: the Potency was inactive: > 76.9 µM.
For the molecule `CCC(C)OC(=O)C1=C(C)NC(=O)CC1c1ccccc1OC` (stereo unspecified), the Potency is inactive: > 76.9 µM.
Turning to `Cc1onc(-c2c(F)cccc2Cl)c1C(=O)NCCCN1CCOCC1`, the Potency is inactive: > 76.9 µM.
For `COc1ccc(N2C(=O)CC(Cc3ccccc3)C2=O)cc1` (stereo unspecified), the Potency is inactive: > 76.9 µM.
On to `COc1ccc(-c2nc(N3CCCC3)[nH]c(=O)c2C#N)cc1`, for which the Potency is inactive: > 76.9 µM.
The result for `Cc1cccc(NC(=O)c2cc(NC(=O)c3ccco3)ccc2N2CCCCC2)c1` reads inactive: > 76.9 µM.
The result for `CC(=O)Nn1c(-c2ccccc2)cc2ccccc21` reads inactive: > 76.9 µM.
As for `O=C(NCc1ccc2c(c1)OCO2)c1cccc(Cl)c1`, the Potency is inactive: > 76.9 µM.
For `CC(=O)Nc1ccc(S(=O)(=O)N2CCCc3ccccc32)cc1` the value was inactive: > 76.9 µM; for `COCCSc1nnc(NC(=O)Cc2cccs2)s1`, inactive: > 76.9 µM; for `COc1ccccc1NC(=O)N1CCN(c2cc(-c3ccccc3)nc3ncnn23)CC1`, inactive: > 76.9 µM.
For the molecule `CCCCn1c(SCC(=O)Nc2cc(C)on2)nc2ccsc2c1=O`, the Potency is inactive: > 76.9 µM.
Regarding `CC1CCN(Cc2nc3c(c(=O)n(C)c(=O)n3C)n2CCCc2ccccc2)CC1`, the Potency was inactive: > 76.9 µM.
For `CCOC(=O)C1(C)NC(c2ccc(N(C)C)cc2)C2C(=O)N(CC)C(=O)C21` (stereo unspecified) the value was inactive: > 76.9 µM.
